# Assay results from PubChem BioAssay (NCATS).
# The inconclusive results got no clear call from the source; some entries with a clear call stand among them for comparison. For part of these data: Potencies of inconclusive entries are left out as doubtful fits. A structure can be active in one record and inactive in another. Active and inactive are the calls of the source. Unless noted, the call rests on the fitted dose curve; in most records, active means well fitted curve in the direction sought with a large enough effect; inconclusive means small, poorly fitted or top-dose-only effect, or another doubt; inactive means no such curve, though single readings can be large; an effect the other way counts as inactive or inconclusive.
# Assays:
# [1] = qHTS of pediatric cancer cell lines to identify multiple opportunities for drug repurposing: Primary screen for SK-N-MC cells (AID 1347093); conditions: SK-N-MC viability, CellTiter-Glo luminescence, 48 h; series mostly up to 46 µM
# How it was run: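 Metabolically active cells were quantified by ATP-dependent luminescence (CellTiter-Glo, 15 min at room temperature) following 48 h treatment. Cells had been plated at 500-1,000 per well and settled for 5 h beforehand.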
# [2] = qHTS of pediatric cancer cell lines to identify multiple opportunities for drug repurposing: Primary screen for LAN-5 cells (AID 1347100); further: potency means the concentration at half of the fitted maximal effect
# How it was run: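 Cells (500-1,000/well) in growth media were settled 5 h at 37 degrees C, then given compounds for 48 h. Viability was read as CellTiter-Glo luminescence. Primary runs used MIPE at 11 points (0.78 nM-46 µM) and NPC at 8 points (0.59 nM-46 µM); follow-ups used 11 points.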
# [3] = qHTS of pediatric cancer cell lines to identify multiple opportunities for drug repurposing: Primary screen for BT-12 cells (AID 1347101); further: nearly all actives have a fitted effect of over 25% in size
# How it was run: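 Cells (500-1,000/well) rested 5 h, then received compounds for 48 h; metabolically active cells were measured by CellTiter-Glo luminescence. Final concentrations spanned up to 46 µM (MIPE, 11-point) or 0.59 nM-46 µM (NPC, 8-point) in primary screens, 11-point in follow-ups.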
# [4] = Primary qHTS for small molecule stabilizers of the endoplasmic reticulum resident proteome: Secreted ER Calcium Modulated Protein (SERCaMP) assay (AID 1508630); conditions: SH-SY5Y GLuc-SERCaMP (Gaussia luciferase released on ER calcium loss) secretion, thapsigargin, luminescence; series mostly up to 38.4 µM; further: potency means the concentration at half of the fitted maximal effect
# How it was run: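 GLuc-SERCaMP-expressing SH-SY5Y cells, pretreated 16 h with compound, are challenged with thapsigargin to empty ER calcium stores; after 4 h, coelenterazine is added directly to the medium and luminescence is imaged.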
# [5] = A High-Content qHTS Against Drug Library for the Identification of Small Molecules that Inhibit DYT1 Early Onset Primary Dystonia-Associated Cell Pathology (AID 1645839; calls by dose curve; further: potency means the concentration at half of the fitted maximal effect)
# How it was run: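 Readout: %pathology, the punctate EGFP-TorsinA distribution from imaging, as the primary channel and cell count as the toxicity counterscreen. HEK293 Flp-In cells expressing delE TorsinA were induced with tetracycline and treated with compound for 48 h.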
# [6] = target: Cytochrome P450 2D6 (Homo sapiens) (UniProt P10635); assay: Cytochrome P450 family 2 subfamily D member 6 (CYP2D6) small molecule antagonists: luciferase biochemical (cell-free) qHTS assay (AID 1645840; active means well fitted curve in the direction sought with a large enough effect in the repeat runs; inconclusive means weak or mixed curves; inactive means no such curve, though single readings can be large; an effect the other way counts as inactive or inconclusive; further: potency means the concentration at half of the fitted maximal effect; nearly all actives have a fitted effect of over 55% in size)
# Sequence of UniProt P10635 (P10635 whole entry, looked up): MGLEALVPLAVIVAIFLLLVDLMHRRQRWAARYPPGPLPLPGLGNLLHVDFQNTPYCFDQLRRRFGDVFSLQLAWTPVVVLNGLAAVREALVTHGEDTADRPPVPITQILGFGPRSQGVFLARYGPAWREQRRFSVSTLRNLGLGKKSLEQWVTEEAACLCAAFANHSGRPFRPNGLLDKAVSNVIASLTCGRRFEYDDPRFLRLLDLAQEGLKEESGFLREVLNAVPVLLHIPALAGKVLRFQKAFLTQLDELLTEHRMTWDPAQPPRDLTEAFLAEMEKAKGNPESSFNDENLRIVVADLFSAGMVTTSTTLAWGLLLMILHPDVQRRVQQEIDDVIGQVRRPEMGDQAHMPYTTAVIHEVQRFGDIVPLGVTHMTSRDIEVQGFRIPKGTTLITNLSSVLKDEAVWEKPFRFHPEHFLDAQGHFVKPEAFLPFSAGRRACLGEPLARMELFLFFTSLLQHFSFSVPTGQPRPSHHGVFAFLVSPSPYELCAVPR
# How it was run: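 P450-Glo luminescent screen: recombinant CYP2D6 enzyme–proluciferin substrate mix preincubated with compound 10 min at room temperature, then NADPH regeneration added for 1 h at room temperature. Detection reagent added for 20 min; luciferin light read as relative luminescence units.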
# [7] = target: Cytochrome P450 2C9 (Homo sapiens) (UniProt P11712); assay: Cytochrome P450 family 2 subfamily C member 9 (CYP2C9) small molecule antagonists: luciferase biochemical (cell-free) qHTS assay (AID 1645842; active means well fitted curve in the direction sought with a large enough effect in the repeat runs; inconclusive means weak or mixed curves; inactive means no such curve, though single readings can be large; an effect the other way counts as inactive or inconclusive; further: potency means the concentration at half of the fitted maximal effect; nearly all actives have a fitted effect of over 55% in size)
# Sequence of UniProt P11712 (P11712 whole entry, looked up): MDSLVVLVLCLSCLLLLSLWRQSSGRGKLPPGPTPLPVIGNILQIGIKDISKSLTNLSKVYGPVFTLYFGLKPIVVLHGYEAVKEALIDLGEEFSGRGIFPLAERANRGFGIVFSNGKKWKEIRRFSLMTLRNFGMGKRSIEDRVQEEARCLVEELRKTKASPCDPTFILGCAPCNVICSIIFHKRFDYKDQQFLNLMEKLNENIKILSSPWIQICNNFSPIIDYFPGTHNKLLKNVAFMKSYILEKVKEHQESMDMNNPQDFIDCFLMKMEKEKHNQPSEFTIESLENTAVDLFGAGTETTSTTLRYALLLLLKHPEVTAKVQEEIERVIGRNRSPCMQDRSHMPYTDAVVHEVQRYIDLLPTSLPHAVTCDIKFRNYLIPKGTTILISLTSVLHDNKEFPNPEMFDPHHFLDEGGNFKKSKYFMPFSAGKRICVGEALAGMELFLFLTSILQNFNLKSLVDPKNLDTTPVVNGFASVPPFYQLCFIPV
# How it was run: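 Luminescence, after 20 min with luciferin detection reagent, reflected CYP2C9 turnover during a 1 h NADPH-driven reaction at 37C. Enzyme-substrate mix contained 0.4% bovine serum albumin and was preincubated with compound 10 min at room temperature.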
# [8] = Primary qHTS for inhibitors of nuclear receptor binding SET domain protein 2 (NSD2) in an isogenic RCH-ACV NSD2 p.E1099K mutant (9B) (AID 1645876); further: potency means the concentration at half of the fitted maximal effect; nearly all actives have a fitted effect of over 70% in size
# [9] = Primary qHTS for inhibitors of nuclear receptor binding SET domain protein 2 (NSD2) in an RCH-ACV wild type WT cells (2C) (AID 1645877); conditions: activity change, negative = cell killing: at 44.9 µM (top of the series) unless noted; further: potency means the concentration at half of the fitted maximal effect; nearly all actives have a fitted effect of over 70% in size
# [10] = target: Rap guanine nucleotide exchange factor 3 (Homo sapiens) (UniProt O95398); assay: Confirmatory qHTS for antagonist of cAMP-regulated guanine nucleotide exchange factor 3 (EPAC1) (AID 1645880); conditions: EPAC1 Rap1B-BODIPY-GDP exchange, fluorescence; further: potency means the concentration at half of the fitted maximal effect; nearly all actives have a fitted effect of over 55% in size
# Sequence of UniProt O95398 (O95398 whole entry, looked up): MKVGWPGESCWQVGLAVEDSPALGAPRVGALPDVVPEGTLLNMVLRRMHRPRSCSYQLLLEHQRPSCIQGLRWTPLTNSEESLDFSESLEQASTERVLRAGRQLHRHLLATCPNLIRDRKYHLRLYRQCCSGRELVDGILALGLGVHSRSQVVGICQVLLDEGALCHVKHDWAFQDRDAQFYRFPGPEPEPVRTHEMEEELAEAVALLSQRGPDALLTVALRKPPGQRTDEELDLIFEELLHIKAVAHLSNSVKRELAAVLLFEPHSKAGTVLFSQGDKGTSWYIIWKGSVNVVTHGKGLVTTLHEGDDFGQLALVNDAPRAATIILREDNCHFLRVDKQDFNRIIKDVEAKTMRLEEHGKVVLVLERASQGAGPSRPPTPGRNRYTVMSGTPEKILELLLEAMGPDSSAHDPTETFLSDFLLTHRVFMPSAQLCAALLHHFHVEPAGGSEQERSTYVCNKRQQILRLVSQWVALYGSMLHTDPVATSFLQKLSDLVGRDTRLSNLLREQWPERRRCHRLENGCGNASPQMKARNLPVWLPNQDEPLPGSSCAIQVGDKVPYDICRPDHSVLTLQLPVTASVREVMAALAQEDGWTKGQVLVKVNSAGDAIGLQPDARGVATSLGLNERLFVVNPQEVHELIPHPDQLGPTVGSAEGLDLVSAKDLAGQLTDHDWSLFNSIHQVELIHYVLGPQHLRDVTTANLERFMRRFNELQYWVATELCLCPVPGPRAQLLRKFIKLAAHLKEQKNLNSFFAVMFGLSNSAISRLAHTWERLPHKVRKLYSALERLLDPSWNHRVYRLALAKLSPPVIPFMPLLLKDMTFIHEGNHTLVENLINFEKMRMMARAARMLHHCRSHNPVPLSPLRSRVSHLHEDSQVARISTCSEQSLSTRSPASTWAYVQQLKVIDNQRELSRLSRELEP
# How it was run: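 Nucleotide exchange uses 100 nM EPAC1, 250 nM RAP1B-BODIPY-GDP and 50 uM GDP, with compounds in a concentration-titration series. After 5 min at room temperature, fluorescence (480 nm ex/540 nm em) is read every 5 min for 30 min. Data are normalized to control ATA and DMSO.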
# [11] = target: Rap guanine nucleotide exchange factor 3 (Homo sapiens) (UniProt O95398); assay: Counterscreen qHTS for agonist of cAMP-regulated guanine nucleotide exchange factor 3 (EPAC1) (AID 1645889); conditions: EPAC1 Rap1B-BODIPY-GDP exchange, fluorescence; series mostly up to 30.8 µM; further: potency means the concentration at half of the fitted maximal effect; nearly all actives have a fitted effect of over 40% in size
# How it was run: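 Measured: fluorescence of BODIPY-GDP bound to Rap1B, which falls as exchange proceeds. Conditions include 50 uM competing GDP, 5 and 30 min reads, and a later cAMP challenge for antagonist detection.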
# [12] = qHTS profiling for inhibitors of Plasmodium falciparum proliferation (AID 504749); further: nearly all actives have a fitted effect of over 60% in size; further: potency means the concentration at half of the fitted maximal effect; conditions: P. falciparum in erythrocytes, SYBR Green DNA, 72 h; Potency: parasite line A unless noted; series mostly up to 28.7 µM
# How it was run: (§1)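 P. falciparum-infected erythrocytes (0.3% parasitemia, 2.5% hematocrit final) were exposed to compounds for 72 h at 37 C in 5% CO2, then lysed with SYBR Green buffer overnight at room temperature; parasite DNA fluorescence was normalized to artemisinin and DMSO controls.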
# AA1029 = assay: as above; conditions: P. falciparum in erythrocytes, SYBR Green DNA, 72 h; series mostly up to 28.7 µM
# How it was run: as §1
# ATS189 = assay: as above; conditions: P. falciparum in erythrocytes, SYBR Green DNA, 72 h; series mostly up to 28.7 µM
# How it was run: as §1
# CP191 = assay: as above; conditions: P. falciparum in erythrocytes, SYBR Green DNA, 72 h; series mostly up to 28.7 µM
# How it was run: as §1
# Tags describe the fitted curve by direction and shape.
structure (smiles),measurement,setting,value
CCCc1c(OCCCCc2nn[nH]n2)ccc(C(C)=O)c1O,Potency,[1],inactive
same,Potency,[2],"inconclusive [cytotoxic, partial curve, poor fit]"
same,Potency,[3],inactive
same,Potency,[4],"inconclusive [inhibitor, partial curve, poor fit]"
same,Potency,[5],"inconclusive [inhibitor, single point]"
same,Potency,[6],"inconclusive [inhibitor, single point]"
same,Potency,[7],active: 0.138 µM
same,Potency,[8],"inconclusive [inhibitor, single point]"
same,Potency,[9],"inconclusive [inhibitor, partial curve, poor fit]"
same,Potency,[10],active: 55.9 µM
same,Potency,[11],"inconclusive [activator, full curve, poor fit]"
same,Potency,[12],"inconclusive [inhibitor, single point]"
same,Potency,AA1029,inactive
same,Potency,ATS189,"inconclusive [inhibitor, single point]"
same,Potency,CP191,"inconclusive [inhibitor, single point]"
